These results are taken from the supplement of paper PMC4967469.

Lines with a small IC50 respond at low doses; where the fit passes the top or lowest dose, that dose stands as a limit. The AUC spans the tested range (256-fold, ending at the top dose) of the same fit; it is 1 without any effect and falls as sensitivity rises. A top dose marked as inferred was calculated from the reported fits.

Compound in this test: N.N.[Cl][Pt][Cl] [Cisplatin]
Put plainly: Viability of human cancer cell lines after 72 h of drug (GDSC screen). To be noted: top dose inferred. The protocol: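 Human cancer cell lines in 384-well plates, medium with 10% serum, drug for 72 h over a 256-fold dose range (nine 2-fold or five 4-fold steps up to the top dose). Adherent lines were fixed and stained with the nucleic acid dye Syto60, suspension lines read with resazurin; signal relative to control wells, capped at 0 and 100%. One two-parameter sigmoid per drug and line, fitted in a mixed model over all curves with the slope shared within a line.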
“CAL-72 (osteosarcoma, adherent, top dose 10 µM)”: the AUC was 0.909 and the IC50 is over 10 µM.
On the same counts, the results for “CAL-78 (chondrosarcoma, adherent, top dose 10 µM)” are 0.895 and over 10 µM.
Consider “CAL-85-1 (breast, adherent, top dose 10 µM)”, for which the AUC came to 0.945 and the IC50 is over 10 µM.
For “CAL-120 (breast, adherent, top dose 10 µM)”, in that order: 0.939 and over 10 µM.
For “CAPAN-1 (pancreas, adherent, top dose 10 µM)”, in that order: 0.812 and 6.11 µM.
With “CAS-1 (glioma, adherent, top dose 10 µM)”, the AUC came to 0.952 and the 50% inhibitory concentration (IC50) was over 10 µM.
On the same counts, the results for “CCF-STTG1 (glioma, adherent, top dose 10 µM)” are 0.925 and over 10 µM.
Consider “CCK-81 (large intestine, adherent, top dose 10 µM)”, for which the AUC amounted to 0.99 and the IC50 is over 10 µM.
For “CCRF-CEM (lymphoblastic leukaemia, suspension, top dose 10 µM)”, in that order: 0.808 and 4.19 µM.
On the same counts, the results for “CESS (acute myeloid leukaemia, suspension, top dose 10 µM)” are 0.948 and over 10 µM.
As for “CFPAC-1 (pancreas, adherent, top dose 10 µM)”, the AUC came to 0.925 and the half-inhibitory concentration (IC50) is over 10 µM.
On the same counts, the results for “CGTH-W-1 (thyroid, adherent, top dose 10 µM)” are 0.683 and 2.02 µM.
As to “CHL-1 (melanoma, adherent, top dose 10 µM)”, the AUC is 0.848 and the concentration for half-maximal inhibition (IC50) stood at 6.78 µM.
On the same counts, the results for “CHP-126 (neuroblastoma, suspension, top dose 10 µM)” are 0.843 and 7.36 µM.
For “CHP-212 (neuroblastoma, adherent, top dose 10 µM)”, in that order: 0.806 and 4.61 µM.
For “CHSA0011 (chondrosarcoma, adherent, top dose 10 µM)”, in that order: 0.943 and over 10 µM.
Consider “CHSA0108 (chondrosarcoma, adherent, top dose 6 µM)”, for which the AUC worked out at 0.892 and the half-maximal inhibitory concentration (IC50) is over 6 µM.
As for “CHSA8926 (chondrosarcoma, adherent, top dose 10 µM)”, the AUC amounted to 0.845 and the IC50 is over 10 µM.
For “CL-11 (large intestine, adherent, top dose 10 µM)”, in that order: 0.955 and over 10 µM.
On the same counts, the results for “CL-34 (large intestine, adherent, top dose 6 µM)” are 0.98 and over 6 µM.
For the cell line “CL-40 (large intestine, adherent, top dose 10 µM)”, the AUC turned out to be 0.972 and the half-maximal inhibitory concentration (IC50) was over 10 µM.
For “CMK (acute myeloid leukaemia, suspension, top dose 10 µM)”, in that order: 0.877 and 7.47 µM.
On the same counts, the results for “CML-T1 (chronic myeloid leukaemia, suspension, top dose 10 µM)” are 0.882 and 7.52 µM.
On the same counts, the results for “COLO-205 (large intestine, suspension, top dose 10 µM)” are 0.976 and over 10 µM.
“COLO-320-HSR (large intestine, suspension, top dose 10 µM)”: the AUC is 0.93 and the IC50 is over 10 µM.
For “COLO-668 (small cell lung carcinoma, adherent, top dose 10 µM)”, in that order: 0.956 and over 10 µM.
For “COLO-678 (large intestine, semi-adherent, top dose 10 µM)”, the AUC came out at 0.975 and the 50% inhibitory concentration (IC50) was over 10 µM.
For “COLO-679 (melanoma, adherent, top dose 10 µM)”, in that order: 0.87 and over 10 µM.
For “COLO-680N (oesophagus, adherent, top dose 10 µM)”, the AUC amounted to 0.943 and the IC50 was over 10 µM.
On the same counts, the results for “COLO-684 (endometrium, suspension, top dose 10 µM)” are 0.961 and over 10 µM.
For “COLO-783 (melanoma, adherent, top dose 10 µM)”, in that order: 0.945 and over 10 µM.
On the same counts, the results for “COLO-800 (melanoma, adherent, top dose 10 µM)” are 0.902 and over 10 µM.
Turning to “COLO-824 (breast, adherent, top dose 10 µM)”, the AUC worked out at 0.986 and the IC50 is over 10 µM.
Turning to “COR-L23 (large cell lung carcinoma, adherent, top dose 10 µM)”, the AUC is 0.816 and the IC50 was found to be 5.35 µM.
For “COR-L88 (small cell lung carcinoma, adherent, top dose 10 µM)”, in that order: 0.981 and over 10 µM.
For “COR-L95 (small cell lung carcinoma, adherent, top dose 10 µM)”, in that order: 0.914 and over 10 µM.
For “COR-L279 (small cell lung carcinoma, suspension, top dose 10 µM)”, the AUC was 0.81 and the half-maximal inhibitory concentration (IC50) amounted to 4.58 µM.
On to “COR-L321 (lung, suspension, top dose 10 µM)”, for which the AUC amounted to 0.984 and the IC50 is over 10 µM.
For the cell line “CP50-MEL-B (melanoma, adherent, top dose 10 µM)”, the AUC was determined as 0.959 and the 50% inhibitory concentration (IC50) was over 10 µM.
Turning to “CP66-MEL (melanoma, adherent, top dose 10 µM)”, the AUC is 0.937 and the IC50 was over 10 µM.
On the same counts, the results for “CPC-N (small cell lung carcinoma, suspension, top dose 10 µM)” are 0.905 and over 10 µM.
Turning to “CRO-AP2 (B-cell lymphoma, suspension, top dose 10 µM)”, the AUC amounted to 0.711 and the concentration for half-maximal inhibition (IC50) worked out at 2.24 µM.
Consider CS1 (bone, adherent, top dose 10 µM), for which the AUC turned out to be 0.765 and the concentration for half-maximal inhibition (IC50) came out at 4.08 µM.
On the same counts, the results for “CTB-1 (B-cell lymphoma, suspension, top dose 10 µM)” are 0.834 and over 10 µM.
On the same counts, the results for “CTV-1 (acute myeloid leukaemia, suspension, top dose 10 µM)” are 0.844 and 5.17 µM.
Regarding “CW-2 (large intestine, adherent, top dose 10 µM)”, the AUC was 0.92 and the IC50 is over 10 µM.
Turning to “Ca9-22 (head and neck, adherent, top dose 10 µM)”, the AUC came to 0.874 and the IC50 is 8.5 µM.
For “Ca-Ski (cervix, adherent, top dose 10 µM)”, in that order: 0.734 and 3.18 µM.
For “CaR-1 (large intestine, adherent, top dose 10 µM)”, in that order: 0.978 and over 10 µM.
Regarding “Calu-3 (lung adenocarcinoma, adherent, top dose 10 µM)”, the AUC turned out to be 0.977 and the IC50 is over 10 µM.
In the case of “Calu-6 (lung adenocarcinoma, adherent, top dose 10 µM)”, the AUC was determined as 0.951 and the IC50 is over 10 µM.
On the same counts, the results for “Caov-4 (ovary, adherent, top dose 10 µM)” are 0.924 and over 10 µM.
Consider “Capan-2 (pancreas, adherent, top dose 10 µM)”, for which the AUC was found to be 0.964 and the IC50 is over 10 µM.
For “D-247MG (glioma, adherent, top dose 10 µM)”, in that order: 0.847 and over 10 µM.
Take “D-263MG (glioma, adherent, top dose 10 µM)”: the AUC amounted to 0.84 and the IC50 worked out at 9.06 µM.
On to “D-283MED (medulloblastoma, adherent, top dose 10 µM)”, for which the AUC amounted to 0.811 and the half-inhibitory concentration (IC50) came out at 4.75 µM.
As to “D-336MG (glioma, adherent, top dose 10 µM)”, the AUC came out at 0.915 and the IC50 is over 10 µM.
On the same counts, the results for “D-392MG (glioma, adherent, top dose 10 µM)” are 0.874 and over 10 µM.
On the same counts, the results for “D-423MG (glioma, adherent, top dose 10 µM)” are 0.877 and over 10 µM.
On the same counts, the results for “D-502MG (glioma, adherent, top dose 10 µM)” are 0.916 and over 10 µM.
Regarding “D-542MG (glioma, adherent, top dose 10 µM)”, the AUC was determined as 0.926 and the 50% inhibitory concentration (IC50) is over 10 µM.
For “D-566MG (glioma, adherent, top dose 10 µM)”, in that order: 0.765 and 3.61 µM.
Consider “DAN-G (pancreas, adherent, top dose 10 µM)”, for which the AUC amounted to 0.972 and the IC50 was over 10 µM.
For “DB (B-cell lymphoma, suspension, top dose 10 µM)”, in that order: 0.908 and over 10 µM.
For “DBTRG-05MG (glioma, adherent, top dose 10 µM)”, in that order: 0.898 and over 10 µM.
Consider “DEL (lymphoid neoplasm, suspension, top dose 10 µM)”, for which the AUC was found to be 0.897 and the IC50 was 7.8 µM.
On the same counts, the results for “DG-75 (Burkitt lymphoma, suspension, top dose 10 µM)” are 0.948 and over 10 µM.

By IC50 is commonly meant the concentration that inhibits the measured activity by half.
